This is one part of the list.
Each sequence was assayed on PfSIP2 AP2 domain 1 (GST-tagged) (assay: gcPBM binding intensity (ln(normalized median fluorescence intensity)); higher = stronger DNA binding).
Procedure, shortened: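 Binding intensity values are the highest Masliner-normalised natural-log median intensity among replicate spots of either probe orientation. The binding step lasted 1 h in 1× PBS with 1% milk, 0.2 mg/ml BSA, 0.5% salmon testes DNA and 0.03% Triton X-100, using GST-tagged P. falciparum DNA-binding domains expressed in E. coli on an Agilent 4 × 180k array of primer-extended double-stranded 36-bp intergenic genomic probes plus negative controls. Alexa488 anti-GST antibody and a 488 nm scan detected bound protein.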

| Sequence | gcPBM binding intensity (ln) |
| --- | --- |
| ATATATATATATATAGTGCAAATAAAAAATAGACAA [GTGCAC_site9796] | 9.46 |
| TAATATATTAAAAGAAGTACATTTCTGATTTAATAG [XGTACX_site6403] | 6.99 |
| GAACCGTTTTTATGTAGTACATATGTATATATATAT [XGTACX_site1577] | 9.06 |
| TTATTTATATATTGCCCACACACATGTGATTATTTA [CACACA_site1715] | 6.92 |
| AATATTTTTTGTTTTACACACATATATAAATATATA [CACACA_site3602] | 7.03 |
| GAATTATATACTTATTGTACAAAAAAAAAAAAAAAA [XGTACX_site3193] | 7.09 |
| TATTCCCCCCAACACACACACACACCGACATACCAC [CACACA_site8723] | 8.96 |
| ATAAACATGTATATATTAAAAAAAAAAAAAAAAAAT [CACACA_negctrl_site92] | 6.83 |
| GCAAGGTCCACACTGGTGCATTAAAAATAAAATATA [GTGCAC_site9956] | 10.4 |
| TTTTTTAAATATATATGTACATATATCTATATATAT [XGTACX_site3461] | 7.73 |
| TTTATAATTTATAGGCGGACAGGAAAATTTTATAAA [XGTACX_site6955] | 7.16 |
| TTTTTAATTTTTTTCACACATATATAAATACAAATA [CACACA_site5530] | 7.13 |
| AAATTACAAATAAAATGTACTCATGTTTTTATTATA [XGTACX_site7223] | 6.9 |
| TGAACAGGTCATAATTTACACACTATATATTTTATT [CACACA_site8123] | 6.87 |
| TACAGGAATATTTTTACACACTAAAAGTTATAAACT [CACACA_site6876] | 6.72 |
| TTTTTCTTTTTTTGTTGTACATTTTGTAATATTTAC [XGTACX_site4102] | 7.16 |
| TATAATATATATGTATGTACGTATGTATGATTTTGT [XGTACX_site1164] | 7.39 |
| AAGAAAAATTCTTCACGTACAAATAATTATATATAT [XGTACX_site7217] | 7.34 |
| TTTTACTATGATATTTATATATCTATATATGTATAT [XGTACX_negctrl_site499] | 6.87 |

| Sequence | gcPBM binding intensity (ln) |
| --- | --- |
| AAAAATAAAAATGAGTGTACTTTAAGCCCTACACTT [XGTACX_site828] | 6.91 |
| TATAATATTATAGTTTGTACGAAAATAATATATTTA [XGTACX_site8673] | 7.14 |
| ACGATGTTCATCACTACACACACAAAGAAATATATA [CACACA_site8859] | 6.93 |
| AACCAAAATTTTTGTCGTACAAAAGAGCAAATGTAG [XGTACX_site6472] | 7.41 |
| TGATTATAGACACGCGCACACACAACAAAAAAAAAA [CACACA_site9179] | 7.34 |
| TAAGTTTGTGCAAGTGGTACATATATATAAATTTAT [XGTACX_site5944] | 7.29 |
| TTTACATAAACTGGTAGTACATAATATGGCTTAAAA [XGTACX_site5002] | 7.24 |
| TTAGCAACTATTACTACACACATTTGTATTTAATTT [CACACA_site4961] | 6.86 |
| TGGATTTTTTGATTTTTGTTTTTCTTCTTTCCCCCC [CACACA_negctrl_site1471] | 8.56 |
| ACAGTATAAAAATAAGCACACACACTAATATATATT [CACACA_site8212] | 7.07 |
| TAAAATATATTTTTCTGTACACAAAAATATATTAAA [XGTACX_site2813] | 7.11 |
| TATATATTAATATATGCATGTTAATATATTATGAAA [TGCATGCA_site61] | 6.9 |
| AATGTAAAACGAAATGCACACTATGGAAAATATAAA [CACACA_site4559] | 7.96 |
| TAATAATAATTAAAATGAGATAAATAAATATATATA [TGCATGCA_negctrl_site322] | 7.38 |
| TCTTTATATCATCTTTCTAAATATATATATATATAA [CACACA_negctrl_site77] | 7.29 |
| TTATATATTTATAAATGTACGTATAAGAATTTAATT [XGTACX_site8541] | 7.24 |
| CTATTAATGTACTCTACACACATATAAGAGGACATT [CACACA_site471] | 7.21 |
| TACATATTTGTATATGCACACATAAATTTTTCCATT [CACACA_site9148] | 7.51 |
| AAATATTTATACCACACACACATACCTCTATTTGTA [CACACA_site6957] | 7.06 |

| Sequence | gcPBM binding intensity (ln) |
| --- | --- |
| TTTTTTTTTTTTTAATGTACCCATGGGCACATAGGT [XGTACX_site486] | 7.31 |
| TAAATATAGGGTAATAGTACATAATTATATTCTTTT [XGTACX_site3883] | 6.76 |
| TATATTTATATATTAGTGCACTTTTTGTTAATTTTT | 10.7 |
| AATGGATTAGCTAGCACACACAAAAAAAAAAAAAAA [CACACA_site3031] | 7.03 |
| CAAAATTTATATAATAGTACACATGATCTTTTTTCT [XGTACX_site8956] | 6.81 |
| TATATATATATATAATGTACGAATAGAAAAAAAAAA [XGTACX_site7231] | 9.04 |
| GATACAAAATGGGGAACACACACATATATATATATA [CACACA_site9278] | 9.26 |
| TATATATATATATATATATATATTAATATATATTAC [XGTACX_negctrl_site103] | 9.16 |
| TAAAGGCAAACAAACACACACACATATATACCTATA [CACACA_site7078] | 7.06 |
| ATAACAAAATAAAACACACACACAAATGTACCTATA [CACACA_site7190] | 7.04 |
| TATTTATAAATATAAACACACAACATTATATGCATA [CACACA_site5748] | 7.02 |
| AAAAGTGTATGTAGGTGTACTTTTTATTTCTTCTTT [XGTACX_site8819] | 7.12 |
| ATTTATGATATGTAAACATGCATAAAAATTTCAAAA [TGCATGCA_site858] | 6.86 |
| AATGGGTTAGCACATACACACCAATATATTATATAT [CACACA_site9011] | 7.23 |
| TATAAACTTAATTTGAGTACTTAATAATAATTTTGT [XGTACX_site3730] | 7.09 |
| TATATATGTATATATGGTACAGAATATTCTACATTA [XGTACX_site5077] | 6.91 |
| CATCCACATATATGTACACACATATATATATATATA [CACACA_site2964] | 9.58 |
| TACCACATCGGTAAATGTACTTATAAAAAAAAAAAA [XGTACX_site3364] | 6.83 |
| CAATCATTTTATTGTTGTACAGTAATTATGAATTCA [XGTACX_site7508] | 6.83 |

— the supplement of paper PMC11417369
